The other results are listed elsewhere or left out. At the low end of the ranking the order means little.

This assay has as its target SIX1-Q177R homeodomain (UniProt Q15475). Kind of assay: universal protein binding microarray. The settings on record: Universal all-10-mer PBM (8x60K, AMADID 030236), 300 nM GST-tagged protein, Alexa Fluor 488 anti-GST; buffer, salt, pH and temperature not stated; high values mean tight binding; most listed sequences are background and not binding sites; double strand, one strand shown.
For TTTCGAAA, the binding signal was -0.235 E-score.
Regarding ACTTTCTC, the binding signal was -0.15 E-score.
For ACGGTTTC the value was 0.0861 E-score.
CACCGGCA: the binding signal amounted to 0.31 E-score.
As to CCAAGGTC, the binding signal is -0.086 E-score.
On to CCATGGGG, for which the binding signal was found to be 0.104 E-score.
In the case of CGGCTACC, the binding signal is 0.0213 E-score.
Turning to CTGAATGC, the binding signal was -0.132 E-score.
With GCTACGAC, the binding signal came to 0.0388 E-score.
CAGCTTAC: the binding signal was -0.0217 E-score.
With CCTATTAC, the binding signal is 0.106 E-score.
On to ATACCCCA, for which the binding signal worked out at 0.254 E-score.
Consider TCAGGAGA, for which the binding signal is -0.192 E-score.
As to GACCGCGA, the binding signal was -0.169 E-score.
On to CCATTGTC, for which the binding signal was -0.00191 E-score.
On to GATGTGAA, for which the binding signal is -0.06 E-score.
Consider CACTTCTG, for which the binding signal was 0.196 E-score.
CTCTTCCC: the binding signal is -0.0953 E-score.
On to CCTCGGTC, for which the binding signal was determined as 0.0818 E-score.
With ACTCCTCA, the binding signal is 0.0792 E-score.
For ACAATGAG, the binding signal was -0.00341 E-score.
For GGATGACA the value was 0.115 E-score; for CTCTAGAG, -0.19 E-score; for CCACGGCC, -0.151 E-score.
For GCTCTTGA the value was -0.149 E-score; for CACCGCGA, 0.238 E-score.
Next, TAGAAAGA: 0.0445 E-score.
With ACATCGAA, the binding signal is -0.206 E-score.
For the sequence CTCCATGA, the binding signal was -0.016 E-score.
With GGAGTTTA, the binding signal is 0.0359 E-score.
Take ACTGCATC: the binding signal was -0.00194 E-score.
Consider ATGTTGCA, for which the binding signal was -0.0583 E-score.
For the sequence CTGATTGC, the binding signal was -0.103 E-score.
As to AGCTAAAC, the binding signal is -0.173 E-score.
For AGGATTGA the value was -0.166 E-score.
On to CTCCAGTC, for which the binding signal stood at 0.0567 E-score.
GTGAGATA: the binding signal worked out at 0.0583 E-score.
For the sequence AACATTAT, the binding signal is -0.0607 E-score.
On to ACGGTTAC, for which the binding signal was found to be 0.0514 E-score.
Regarding AACTCCCT, the binding signal is -0.0497 E-score.
Turning to CTTGGTGC, the binding signal worked out at 0.143 E-score.
For AAAGGGGG, the binding signal amounted to 0.233 E-score.
For the sequence GCGACACC, the binding signal is 0.487 E-score.
For the sequence GGTTCAGA, the binding signal is -0.104 E-score.
For AGTAGACA the value was 0.135 E-score; for CCGTGCAA, 0.06 E-score; for CTTATCCA, -0.0784 E-score.
Next, GCGCACAA: -0.0259 E-score; ATTCTATC: -0.122 E-score.
For AGAAGAAG the value was -0.186 E-score; for GAATCAAC, -0.0746 E-score.
For CGCGTCCA, the binding signal was -0.0696 E-score.
Take ATACTACG: the binding signal is -0.0539 E-score.
As to GACAGCAA, the binding signal is -0.255 E-score.
On to AATGCCGG, for which the binding signal is -0.111 E-score.
Next, GGACGGAA: -0.204 E-score; CCGGAAGA: -0.0112 E-score; CGCCACCC: 0.19 E-score.
On to CCCGTTTC, for which the binding signal amounted to 0.123 E-score.
As to GACGGGTA, the binding signal is 0.00861 E-score.
For CCGAAGGC the value was -0.0854 E-score; for CGTTTCGA, -0.0232 E-score.
Regarding AGACGAAA, the binding signal is -0.331 E-score.
For the sequence ATTGCAAC, the binding signal is -0.0256 E-score.
In the case of CTCTAGGA, the binding signal is -0.228 E-score.
Consider AACAGTCC, for which the binding signal is -0.225 E-score.
For AAGACCCT, the binding signal was found to be 0.0172 E-score.
Next, ACCCATTA: -0.00306 E-score; AGAAGGTA: 0.0104 E-score.
Consider GAATAGAA, for which the binding signal is -0.168 E-score.
With AGATATTC, the binding signal was -0.0856 E-score.
For the sequence AAGAACCT, the binding signal was -0.0404 E-score.
For the sequence CCCACGTA, the binding signal was -0.0421 E-score.
Regarding CACCCGGG, the binding signal stood at 0.327 E-score.
On to AACTTTCT, for which the binding signal is -0.18 E-score.
Turning to AGTACTCG, the binding signal came to 0.018 E-score.
Consider GGCAGACC, for which the binding signal is -0.185 E-score.
As to GCGCAACC, the binding signal was 0.0525 E-score.
Turning to CCGACTAC, the binding signal is 0.0424 E-score.
On to ACCAGTTG, for which the binding signal came to 0.119 E-score.
ACGGGCGA: the binding signal was -0.0281 E-score.
For the sequence AAAGCCAC, the binding signal was -0.355 E-score.
With AGGCCCGA, the binding signal was -0.131 E-score.
Regarding CGTCTCGC, the binding signal turned out to be 0.0333 E-score.
For the sequence ATGCCGGG, the binding signal was -0.0554 E-score.
With CTCACCAA, the binding signal was -0.00298 E-score.
For TCGATGCA the value was -0.0578 E-score; for CGAATTGA, -0.0216 E-score; for AGACTTTC, -0.242 E-score.
As to CCTACTGA, the binding signal was determined as 0.0318 E-score.
For ATATATAG the value was -0.145 E-score.
As to GAACCGTA, the binding signal was -0.239 E-score.
Consider CCCGTTGA, for which the binding signal is -0.0997 E-score.
Take AATGGTCA: the binding signal is -0.0187 E-score.
In the case of CCTGGACG, the binding signal turned out to be 0.0741 E-score.
GTTTCCTA: the binding signal was -0.0509 E-score.
On to AGCAATCG, for which the binding signal was determined as 0.00404 E-score.
Take CGGTCCCA: the binding signal is -0.0587 E-score.
Next, ACGCCTAT: 0.13 E-score.
On to AATGTGGC, for which the binding signal is -0.272 E-score.
Turning to CTGGTTGC, the binding signal was -0.00346 E-score.
For CATTAGAG, the binding signal was -0.136 E-score.
With CACAAAGA, the binding signal was 0.0749 E-score.
On to AAGGTTAC, for which the binding signal was -0.046 E-score.
For the sequence TATCGGAA, the binding signal was -0.0381 E-score.
Next, GTTCAGCA: -0.0113 E-score; CCCACCCA: 0.204 E-score; CTCAAACC: -0.195 E-score.
Regarding CATACGCG, the binding signal is -0.0113 E-score.
On to AAGTGCCT, for which the binding signal is -0.176 E-score.
On to AGTTGAAA, for which the binding signal was -0.0977 E-score.
On to CATCCGAG, for which the binding signal was -0.0249 E-score.
AGACCGCT: the binding signal was -0.21 E-score.
Consider GATTTACA, for which the binding signal stood at 0.0536 E-score.
Regarding CACATTTC, the binding signal turned out to be 0.186 E-score.
Turning to AGCCAGCT, the binding signal was -0.0564 E-score.
Turning to AATTCTTG, the binding signal is -0.215 E-score.
Take CACTTTGG: the binding signal amounted to 0.13 E-score.
As to ACAATAGT, the binding signal is -0.0786 E-score.
Next, TTACCTAA: -0.0536 E-score.
For AGCATGAT, the binding signal is -0.149 E-score.
Next, AGGGCTGG: -0.0531 E-score.
In the case of CTCGATGC, the binding signal is -0.135 E-score.
Regarding GAATCTCA, the binding signal is -0.0599 E-score.
For TATAACGA, the binding signal is -0.0935 E-score.
As to TAGATCGA, the binding signal was -0.253 E-score.
As to CCCCCGCG, the binding signal was found to be 0.272 E-score.
Turning to CGTCAGCC, the binding signal is -0.0293 E-score.
As for GGTCATCA, the binding signal was 0.044 E-score.
Regarding CGGTGTCC, the binding signal was found to be 0.489 E-score.
In the case of CTTACCGA, the binding signal is -0.218 E-score.
As to AGCCGCGC, the binding signal was -0.202 E-score.
With AAGACAGC, the binding signal is -0.123 E-score.
With CATAGCCA, the binding signal was -0.229 E-score.
Turning to GAATGAGA, the binding signal was -0.134 E-score.
With CACGTGAA, the binding signal was found to be 0.121 E-score.
As for GGTAGCAA, the binding signal was -0.146 E-score.
With CTCCAGTA, the binding signal is -0.151 E-score.
For GCCTCACA, the binding signal came out at 0.0219 E-score.
In the case of AAGTGCGC, the binding signal was -0.0909 E-score.
Consider AGAATAAG, for which the binding signal is -0.0682 E-score.
ATTCTTCA: the binding signal is -0.27 E-score.
Next, AAGGACGT: 0.0327 E-score; CAGTATTC: -0.0847 E-score.
Consider GTTTTGGA, for which the binding signal was 0.089 E-score.
On to ACCCAGGC, for which the binding signal came out at 0.162 E-score.
On to AGTTGCCG, for which the binding signal amounted to 0.00696 E-score.
For the sequence ACATACCG, the binding signal amounted to 0.148 E-score.
GAAACTTA: the binding signal was -0.161 E-score.
For CGCAAGTC the value was 0.0342 E-score.
Next, ACGAACAA: -0.0264 E-score; ACGATTAG: 0.0335 E-score; CCGCGCGG: 0.172 E-score.
Next, CCATGCTA: -0.131 E-score.
On to ACCCAAAA, for which the binding signal was 0.0852 E-score.
On to AACGACAT, for which the binding signal was -0.0988 E-score.
For AGGCGCGC, the binding signal is -0.186 E-score.
With ATACGGTA, the binding signal stood at 0.0274 E-score.
Consider ACAGCACA, for which the binding signal was determined as 0.0958 E-score.
As for ATCTTGTG, the binding signal came out at 0.0962 E-score.
Turning to AGGAGGCG, the binding signal is -0.113 E-score.
GACTGATC: the binding signal was -0.249 E-score.
Turning to AAGTAGCG, the binding signal is -0.103 E-score.
In the case of CACGTAAA, the binding signal came to 0.048 E-score.
For the sequence CTATCCCA, the binding signal is -0.0134 E-score.
For ATATACGA the value was -0.0794 E-score.
Turning to ACAGGATG, the binding signal was determined as 0.013 E-score.
Consider CTGGGGGA, for which the binding signal came out at 0.0206 E-score.
In the case of GAATAATA, the binding signal was found to be 0.0723 E-score.
As to GGGATTGA, the binding signal is -0.139 E-score.
As to GATTAAGA, the binding signal came to 0.000705 E-score.
For CGGCGCTC, the binding signal is -0.0795 E-score.
